Assay results as given in the supplement of paper PMC8728848.
This is one part of the list.

Columns and labels:
Test in all cases: glycan array binding signal (z-score within array); higher = stronger binding
Settings in all cases: glycan notation: IUPAC condensed, linker removed
Gal3S(b1-4)Glc = target: Gal3S(b1-4)Glc
Summary of the method: (§1)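 The binding signal is a Z-score computed within each array and averaged over linkers. Arrays of the same protein sequence at different concentrations or buffers were also averaged together. Data originate from 3228 arrays in the Consortium for Functional Glycomics database, kept only where the protein sequence was available.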

Gal3S(b1-4)Glc6S = target: Gal3S(b1-4)Glc6S
Summary of the method: as §1

Gal3S(b1-4)GlcNAc = target: Gal3S(b1-4)GlcNAc
Summary of the method: as §1

[1] = target: Gal3S(b1-4)[Fuc(a1-3)]Glc6S
Summary of the method: as §1

[2] = target: Gal3S(b1-4)[Fuc(a1-3)]GlcNAc
Summary of the method: as §1

[3] = target: Gal3S(b1-4)[Fuc(a1-3)]GlcNAc6S
Summary of the method: as §1

Gal3S4S(b1-4)GlcNAc = target: Gal3S4S(b1-4)GlcNAc
Summary of the method: as §1

Gal3S6S(b1-4)GlcNAc = target: Gal3S6S(b1-4)GlcNAc
Summary of the method: as §1

Gal3S6S(b1-4)GlcNAc6S = target: Gal3S6S(b1-4)GlcNAc6S
Summary of the method: as §1

Gal4S(b1-4)GlcNAc = target: Gal4S(b1-4)GlcNAc
Summary of the method: as §1

Gal4S6S(b1-4)GlcNAc = target: Gal4S6S(b1-4)GlcNAc
Summary of the method: as §1

Gal6P(b1-4)GlcNAc = target: Gal6P(b1-4)GlcNAc
Summary of the method: as §1

Gal6S(b1-3)GlcNAc = target: Gal6S(b1-3)GlcNAc
Summary of the method: as §1

Gal6S(b1-3)GlcNAc6S = target: Gal6S(b1-3)GlcNAc6S
Summary of the method: as §1

Gal6S(b1-4)Glc = target: Gal6S(b1-4)Glc
Summary of the method: as §1

Gal6S(b1-4)Glc6S = target: Gal6S(b1-4)Glc6S
Summary of the method: as §1

Gal6S(b1-4)GlcNAc = target: Gal6S(b1-4)GlcNAc
Summary of the method: as §1

Gal6S(b1-4)GlcNAc6S = target: Gal6S(b1-4)GlcNAc6S
Summary of the method: as §1

GalNAc(a1-3)Gal = target: GalNAc(a1-3)Gal
Summary of the method: as §1

GalNAc(a1-3)GalNAc = target: GalNAc(a1-3)GalNAc
Summary of the method: as §1

[4] = target: GalNAc(a1-3)GalNAc(b1-3)Gal(a1-4)Gal(b1-4)Glc
Summary of the method: as §1

[5] = target: GalNAc(a1-3)GalNAc(b1-3)Gal(a1-4)Gal(b1-4)GlcNAc
Summary of the method: as §1

GalNAc(b1-3)Gal = target: GalNAc(b1-3)Gal
Summary of the method: as §1

[6] = target: GalNAc(b1-3)Gal(a1-4)Gal(b1-4)GlcNAc
Summary of the method: as §1

[7] = target: GalNAc(b1-3)Gal(a1-4)Gal(b1-4)GlcNAc(b1-3)Gal(b1-4)Glc
Summary of the method: as §1

[8] = target: GalNAc(b1-3)Gal(a1-6)Gal(b1-4)Glc
Summary of the method: as §1

GalNAc(b1-3)GalNAc = target: GalNAc(b1-3)GalNAc
Summary of the method: as §1

GalNAc(b1-3)GlcNAc = target: GalNAc(b1-3)GlcNAc
Summary of the method: as §1

GalNAc(b1-4)Gal(b1-4)Glc = target: GalNAc(b1-4)Gal(b1-4)Glc
Summary of the method: as §1

GalNAc(b1-4)GlcNAc = target: GalNAc(b1-4)GlcNAc
Summary of the method: as §1

[9] = target: GalNAc(b1-4)GlcNAc(b1-2)Man
Summary of the method: as §1

[10] = target: GalNAc(b1-4)GlcNAc(b1-2)Man(a1-3)[GalNAc(b1-4)GlcNAc(b1-2)Man(a1-6)]Man(b1-4)GlcNAc(b1-4)GlcNAc
Summary of the method: as §1

[11] = target: GalNAc(b1-4)GlcNAc(b1-3)GalNAc(b1-4)GlcNAc
Summary of the method: as §1

GalNAc(b1-4)GlcNAc6S = target: GalNAc(b1-4)GlcNAc6S
Summary of the method: as §1

GalNAc(b1-6)GalNAc = target: GalNAc(b1-6)GalNAc
Summary of the method: as §1

GalNAc3S(b1-4)GlcNAc = target: GalNAc3S(b1-4)GlcNAc
Summary of the method: as §1

GalNAc3S(b1-4)GlcNAc3S = target: GalNAc3S(b1-4)GlcNAc3S
Summary of the method: as §1

B1: PX14343B-bfa-546-20-546 (Bacteroides fragilis) (protein)
chain: CDLERYPLTDLSEETFWNSESNAELALTSLYRGSLTDGVEYNPSDWWSYHGMIMMEHLSDNAFDRRGENNPFFKISSGNLTADNAFIKRYWETSYKRIGYCNRFLVGIQNSSESEKKTRMIAEARFLRATQYFYLASYFKNVPLVENVLTGEEANNVTKTSQADILKWCVTEFTAAAADLPRFSAIPAGEAGRACKQAALAFLGRTCMLQKDWKSGAKAFHDIMELGDNAINANYQELFYPSTGTSNKENIFYIQYLENYLGTGLPQHALSAKDGGWSLVNPAADLYESYEFKDGTPFSYDDPRYDPSNLGKDRDPRLDYTIYYNGAIFMGTEYKMSPDYSAAKKEKLDYTSEASRTGFMMRKYFEESTPINDVQSANGLTPVIRYAEVLLGYLECLVEDNQTITQGILDETINAVRGRASVNMPPVTEVTPAKLREIVRHERRIELAMEGIRYWDIMRWGIAHEVLSQKIWGAPYPGSTQYATTTKEVDPTGNYRWYVGKRAFRNPTDYTWPIPQSEQNINPNLRD
glycan array binding signal (z-score) (Gal3S(b1-4)Glc): -0.116
glycan array binding signal (z-score) (Gal3S(b1-4)Glc6S): -0.129
glycan array binding signal (z-score) (Gal3S(b1-4)GlcNAc): -0.124
glycan array binding signal (z-score) [1]: -0.116
glycan array binding signal (z-score) [2]: -0.12
glycan array binding signal (z-score) [3]: -0.121
glycan array binding signal (z-score) (Gal3S4S(b1-4)GlcNAc): -0.124
glycan array binding signal (z-score) (Gal3S6S(b1-4)GlcNAc): -0.119
glycan array binding signal (z-score) (Gal3S6S(b1-4)GlcNAc6S): -0.109
glycan array binding signal (z-score) (Gal4S(b1-4)GlcNAc): -0.114
glycan array binding signal (z-score) (Gal4S6S(b1-4)GlcNAc): -0.12
glycan array binding signal (z-score) (Gal6P(b1-4)GlcNAc): -0.106
glycan array binding signal (z-score) (Gal6S(b1-3)GlcNAc): 9.99
glycan array binding signal (z-score) (Gal6S(b1-3)GlcNAc6S): 6.09
glycan array binding signal (z-score) (Gal6S(b1-4)Glc): 1.73
glycan array binding signal (z-score) (Gal6S(b1-4)Glc6S): 3.07
glycan array binding signal (z-score) (Gal6S(b1-4)GlcNAc): 9.6
glycan array binding signal (z-score) (Gal6S(b1-4)GlcNAc6S): 13.3
glycan array binding signal (z-score) (GalNAc(a1-3)Gal): -0.126
glycan array binding signal (z-score) (GalNAc(a1-3)GalNAc): -0.128
glycan array binding signal (z-score) [4]: -0.122
glycan array binding signal (z-score) [5]: -0.129
glycan array binding signal (z-score) (GalNAc(b1-3)Gal): -0.123
glycan array binding signal (z-score) [6]: -0.121
glycan array binding signal (z-score) [7]: -0.103
glycan array binding signal (z-score) [8]: -0.128
glycan array binding signal (z-score) (GalNAc(b1-3)GalNAc): -0.121
glycan array binding signal (z-score) (GalNAc(b1-3)GlcNAc): -0.125
glycan array binding signal (z-score) (GalNAc(b1-4)Gal(b1-4)Glc): -0.125
glycan array binding signal (z-score) (GalNAc(b1-4)GlcNAc): -0.124
glycan array binding signal (z-score) [9]: -0.128
glycan array binding signal (z-score) [10]: -0.104
glycan array binding signal (z-score) [11]: -0.117
glycan array binding signal (z-score) (GalNAc(b1-4)GlcNAc6S): -0.109
glycan array binding signal (z-score) (GalNAc(b1-6)GalNAc): -0.13
glycan array binding signal (z-score) (GalNAc3S(b1-4)GlcNAc): -0.13
glycan array binding signal (z-score) (GalNAc3S(b1-4)GlcNAc3S): -0.125
